Target: T1, AAL (Aleuria Aurantia lectin) (Aleuria aurantia, UniProt P18891)
T1 construct: purchased Vector Laboratories (Newark, CA, USA)
T1 sequence (P18891 1-313): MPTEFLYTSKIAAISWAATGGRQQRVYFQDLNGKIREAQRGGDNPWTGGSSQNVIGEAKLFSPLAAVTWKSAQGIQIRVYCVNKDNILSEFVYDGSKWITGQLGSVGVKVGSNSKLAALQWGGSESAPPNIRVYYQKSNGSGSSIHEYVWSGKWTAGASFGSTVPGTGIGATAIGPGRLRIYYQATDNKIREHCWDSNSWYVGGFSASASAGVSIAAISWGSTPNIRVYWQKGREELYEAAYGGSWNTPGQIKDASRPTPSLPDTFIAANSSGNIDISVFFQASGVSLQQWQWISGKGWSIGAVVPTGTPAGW
Assay: COIN-CaR-nMS
Design: key: NQ indicates glycan ligand detected but not quantified due to low relative abundance
Details: N-glycan natural libraries; pH 6.9
From the text: For most glycosylated GBPs, glycan binding measurements by nMS are challenging because the heterogeneity (micro- and macroheterogeniety) of GBP species makes quantifying the free and ligand-bound glycoforms difficult. As a result, detection of glycan ligands of glycosylated GBPs is usually performed using CaR-nMS. In CaR-nMS, glycan ligands bound (noncovalently) to a GBP are released as ions in the gas phase by collisional activation of the GBP-glycan complexes and detected. The results of CaR-nMS screening performed on glycan libraries of known concentrations enable GBP-glycan affinity rankings to be constructed from the relative abundances of released ligands. Generating titration curves from the relative abundances of released ligands in CaR-nMS experiments is generally not possible due to tip-to-tip variability in released ligand signal. The COIN approach enables quantification with CaR-nMS (COIN-CaR-nMS). […] Because PL dissociates to free P and L in the COIN-CaR-nMS experiment, Ft is calculated from eq 14 [drawing 19] […]
While the glycan specificities of lectins commonly used in lectin arrays[37] and biotechnology applications have been extensively investigated,[38] there is a dearth of quantative affinity data. […] Where indicated, Kd were also measured for purified oligosaccharide ligands to provide additional context to the reported affinity ranking.

## CC(=O)N[C@H]1[C@H](O[C@H]2[C@H](O)[C@@H](NC(C)=O)C(O)O[C@@H]2CO[C@@H]2O[C@@H](C)[C@@H](O)[C@@H](O)[C@@H]2O)O[C@H](CO)[C@@H](O[C@@H]2O[C@H](CO[C@H]3O[C@H](CO)[C@@H](O)[C@H](O)[C@@H]3O[C@@H]3O[C@H](CO)[C@@H](O[C@@H]4O[C@H](CO)[C@H](O)[C@H](O)[C@H]4O)[C@H](O)[C@H]3NC(C)=O)[C@@H](O)[C@H](O[C@H]3O[C@H](CO)[C@@H](O)[C@H](O)[C@@H]3O[C@@H]3O[C@H](CO)[C@@H](O[C@@H]4O[C@H](CO)[C@H](O)[C@H](O)[C@H]4O)[C@H](O)[C@H]3NC(C)=O)[C@@H]2O)[C@@H]1O (stereo partly shown) [HexNAc4Hex5Fuc1]
  Kd: NQ

Source: PMC10303200 (ACS Central Science, 2023)
